From the supplement of paper PMC4967469 come the findings set out here.

A lower IC50 marks a more sensitive line; fits outside the tested doses are given as limits. AUC, from the same fit, is the share of area under the viability curve across the 256-fold dose range: 1 means no effect, lower means more sensitive. For part of these data: The top dose, if marked as inferred, was derived from the fitted curves, not read from the paper. For part of these data: An entry number marks a drug with two screens in the source, which often give different values.

What all share (test): Viability of human cancer cell lines after 72 h of drug (GDSC screen)
Compound in one experiment: C#Cc1cccc(Nc2ncnc3cc(OC)c(OCCCCCCC(=O)NO)cc23)c1 [CUDC-101]
The settings on record: top dose 5.12 µM; top dose inferred. On the procedure: (§1)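 Human cancer cell lines in 384-well plates, medium with 10% serum, drug for 72 h over a 256-fold dose range (nine 2-fold or five 4-fold steps up to the top dose). Adherent lines were fixed and stained with the nucleic acid dye Syto60, suspension lines read with resazurin; signal relative to control wells, capped at 0 and 100%. One two-parameter sigmoid per drug and line, fitted in a mixed model over all curves with the slope shared within a line.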

Compound in the next experiment: CC(C)(C)c1cc(NC(=O)Nc2ccc(-c3cn4c(n3)sc3cc(OCCN5CCOCC5)ccc34)cc2)no1 [AC220]
The conditions noted are these: top dose 1.024 µM; top dose inferred. The protocol:
as §1

Compound in another experiment: COc1cc(F)c(F)c(Nc2ccc(I)cc2F)c1NS(=O)(=O)C1(C[C@H](O)CO)CC1 [RDEA119]
The conditions noted are these: top dose 5 µM, top dose inferred. The protocol: as §1

Compound in the next experiment: Fc1cc(-c2ccnc(Nc3ccc(-n4cnc(N5CCOCC5)n4)cc3)n2)cc(N2CCOCC2)c1 [JNK-9L]
The settings on record: top dose 5.12 µM; top dose inferred. On the procedure: as §1

Compound in the next experiment: NCC(=O)Nc1ccc(-n2nc(C(F)(F)F)cc2-c2ccc3c(ccc4ccccc43)c2)cc1 [OSU-03012]
The conditions noted are these: top dose 16 µM; top dose inferred. The protocol: as §1

Compound in the next experiment: O=c1[nH]cc(F)c(=O)[nH]1 [5-Fluorouracil]
The settings on record: top dose 32 µM; top dose inferred. On the procedure: as §1

Compound in a further experiment: OC[C@H](Cc1ccccc1)Nc1nc(Oc2ccc3c(c2)CCC3)nc2c1ncn2Cc1ccc(-c2ccccc2)cc1 [QS11]
The settings on record: top dose 10.24 µM. On the procedure:
as §1

Regarding HCC1954 (breast, adherent), the AUC with CUDC-101 amounted to 0.642; in the experiment with AC220, 0.969; with RDEA119 (screen: GDSC drug entry 1014) it was 0.925; in the experiment with RDEA119 (screen: GDSC drug entry 1526), 0.86; with JNK-9L, 0.573; with OSU-03012, 0.793. Besides, the values for the AUC with 5-Fluorouracil and with QS11 were 0.94 and 0.877, respectively. Moreover, the half-inhibitory concentration (IC50) with CUDC-101 is 844 nM; with AC220, above 1020 nM; with RDEA119 (screen: GDSC drug entry 1014), above 5000 nM; with RDEA119 (screen: GDSC drug entry 1526), above 5000 nM; with JNK-9L, 523 nM; in the experiment with OSU-03012, 8720 nM. Further, the 50% inhibitory concentration (IC50) is above 32000 nM with 5-Fluorouracil and above 10200 nM in the experiment with QS11.
As for HCC2157 (breast, suspension), the AUC with CUDC-101 is 0.821; with AC220, 0.685; with RDEA119 (screen: GDSC drug entry 1014), 0.951; with RDEA119 (screen: GDSC drug entry 1526), 0.985; with JNK-9L, 0.594; in the experiment with OSU-03012, 0.869. The AUC in the experiment with 5-Fluorouracil was determined as 0.787; in the experiment with QS11, 0.851. Besides, the half-maximal inhibitory concentration (IC50) is 3150 nM in the experiment with CUDC-101; 217 nM in the experiment with AC220; above 5000 nM in the experiment with RDEA119 (screen: GDSC drug entry 1014); above 5000 nM with RDEA119 (screen: GDSC drug entry 1526); 588 nM with JNK-9L; above 16000 nM with OSU-03012. The figures for the 50% inhibitory concentration (IC50) with 5-Fluorouracil and with QS11 were 14700 nM and 8490 nM, respectively.
Take HCC2218 (breast, suspension): the AUC came out at 0.642 in the experiment with CUDC-101; 0.967 in the experiment with AC220; 0.968 in the experiment with RDEA119 (screen: GDSC drug entry 1014); 0.978 with RDEA119 (screen: GDSC drug entry 1526); 0.708 with JNK-9L; 0.839 with OSU-03012. The results for the AUC with 5-Fluorouracil and with QS11 were 0.74 and 0.891, respectively. Also, the IC50 with CUDC-101 is 879 nM; in the experiment with AC220, above 1020 nM; with RDEA119 (screen: GDSC drug entry 1014), above 5000 nM; with RDEA119 (screen: GDSC drug entry 1526), above 5000 nM; with JNK-9L, 1460 nM; with OSU-03012 it was 15200 nM. The IC50 was 11800 nM in the experiment with 5-Fluorouracil and above 10200 nM in the experiment with QS11.
As for HCC2998 (large intestine, adherent), the AUC turned out to be 0.699 in the experiment with CUDC-101; 0.988 with AC220; 0.608 with RDEA119 (screen: GDSC drug entry 1526); 0.682 with JNK-9L; 0.708 with OSU-03012; 0.746 with 5-Fluorouracil. The AUC with QS11 turned out to be 0.92. Also, the IC50 in the experiment with CUDC-101 is 1140 nM; with AC220, above 1020 nM; in the experiment with RDEA119 (screen: GDSC drug entry 1526), 611 nM; with JNK-9L, 1010 nM; with OSU-03012, 3800 nM; with 5-Fluorouracil, 9910 nM. For the same cell line, in the experiment with QS11, the 50% inhibitory concentration (IC50) was above 10200 nM.
Take “HCC-15 (lung squamous cell carcinoma, adherent)”: the AUC came out at 0.898 in the experiment with CUDC-101; 0.978 with AC220; 0.504 with RDEA119 (screen: GDSC drug entry 1014); 0.368 with RDEA119 (screen: GDSC drug entry 1526); 0.694 with JNK-9L; 0.733 with OSU-03012. The AUC amounted to 0.948 with 5-Fluorouracil and 0.86 with QS11. The IC50 in the experiment with CUDC-101 was above 5120 nM; with AC220, above 1020 nM; in the experiment with RDEA119 (screen: GDSC drug entry 1014) it was 322 nM; with RDEA119 (screen: GDSC drug entry 1526) it was 121 nM; in the experiment with JNK-9L, 1320 nM; with OSU-03012, 5690 nM. The results for the half-maximal inhibitory concentration (IC50) in the experiment with 5-Fluorouracil and in the experiment with QS11 were above 32000 nM and above 10200 nM, respectively.
Consider HCC-56 (large intestine, adherent), for which the AUC with CUDC-101 was determined as 0.349; with AC220, 0.852; in the experiment with RDEA119 (screen: GDSC drug entry 1014), 0.342; with RDEA119 (screen: GDSC drug entry 1526), 0.672; with JNK-9L, 0.568; in the experiment with OSU-03012 it was 0.722. Besides, the AUC with 5-Fluorouracil turned out to be 0.767; in the experiment with QS11, 0.878. The half-inhibitory concentration (IC50) with CUDC-101 came to 121 nM; in the experiment with AC220, 825 nM; with RDEA119 (screen: GDSC drug entry 1014), 113 nM; in the experiment with RDEA119 (screen: GDSC drug entry 1526), 958 nM; in the experiment with JNK-9L, 492 nM; with OSU-03012, 4330 nM. The IC50 in the experiment with 5-Fluorouracil is 12200 nM; with QS11, above 10200 nM.
In the case of HCE-4 (oesophagus, adherent), the AUC in the experiment with CUDC-101 turned out to be 0.971; in the experiment with AC220, 0.991; with RDEA119 (screen: GDSC drug entry 1526), 0.936; with JNK-9L, 0.584; with OSU-03012 it was 0.615; with 5-Fluorouracil, 0.986. The AUC in the experiment with QS11 was determined as 0.885. For the same cell line, the half-inhibitory concentration (IC50) in the experiment with CUDC-101 is above 5120 nM; with AC220, above 1020 nM; with RDEA119 (screen: GDSC drug entry 1526), above 5000 nM; in the experiment with JNK-9L, 525 nM; with OSU-03012, 1960 nM; with 5-Fluorouracil, above 32000 nM. Besides, the IC50 in the experiment with QS11 was 8440 nM.

As a reminder, the IC50 is the midpoint of a concentration-inhibition curve.
